Results reported in patent US11000038B2, “Pyridone compounds and agricultural and horticultural fungicides containing the same as active ingredients” (priority 2017, dated 2021).

Assays:
[1] = test system: cabbage Alternaria sooty spot fungi (Alternaia brassicicola); experiment: Test Example C: cabbage Alternaria sooty spot, spray treatment of cabbage plants; assay type: in vivo; conditions: cabbage Alternaria sooty spot
Description: [Test Example C] Cabbage Alternaria Sooty Spot
Test plants (cabbage variety: Shikidori) were cultivated until the cotyledons extended after the sowing of seeds.
<Control Value> Control value=100{1−(n/3)}

[2] = test system: grape downy mildew fungus (Plasmopara viticola); experiment: Test Example G: grape downy mildew, spray treatment of grape plants; conditions: grape downy mildew, 7 to 10 days after inoculation
[3] = test system: barley powdery mildew fungi (Blumeria graminis f. sp. hordei); experiment: Test Example D: barley powdery mildew, spray treatment of barley plants; conditions: barley powdery mildew
[4] = test system: gray mold fungi (Botrytis cinerea); experiment: Test Example B: tomato gray mold, spray treatment of tomato plants; conditions: tomato gray mold
[5] = test system: wheat brown rust fungi (Puccinia recondita); experiment: Test Example E: wheat brown rust, spray treatment of wheat plants; assay type: in vivo; conditions: wheat brown rust
[6] = spray treatment of cabbage plants
[7] = spray treatment of barley plants
[8] = spray treatment of tomato plants
[9] = spray treatment of wheat plants

## Cc1cccc(F)c1-n1cc(Br)c(=O)c(Br)c1-c1ccc(F)cc1 [Compound 359]
[1]; [6]
  Test C control value: L (L shows the control value of 50% or less)
[2]; 250 ppm spray (2.5 ml/pot)
  Test G control value: L (L shows the control value of 50% or less)
[3]; [7]
  Test D control value: L (L shows the control value of 50% or less)
[4]; [8]
  Test B control value: H (H shows the control value of more than 50%)
[5]; [9]
  Test E control value: L (L shows the control value of 50% or less)

## O=c1c(Br)cn(-c2ccccc2F)c(-c2c(F)cccc2F)c1Cl [Compound 361]
[1]; [6]
  Test C control value: H (H shows the control value of more than 50%)
[2]; 250 ppm spray (2.5 ml/pot)
  Test G control value: H (H shows the control value of more than 50%)
[3]; [7]
  Test D control value: L (L shows the control value of 50% or less)
[4]; [8]
  Test B control value: H (H shows the control value of more than 50%)
[5]; [9]
  Test E control value: H (H shows the control value of more than 50%)

## O=c1c(Br)cn(-c2ccccc2)c(-c2c(F)cccc2F)c1Cl [Compound 362]
[1]; [6]
  Test C control value: H (H shows the control value of more than 50%)
[2]; 250 ppm spray (2.5 ml/pot)
  Test G control value: H (H shows the control value of more than 50%)
[3]; [7]
  Test D control value: L (L shows the control value of 50% or less)
[4]; [8]
  Test B control value: H (H shows the control value of more than 50%)
[5]; [9]
  Test E control value: H (H shows the control value of more than 50%)

## O=c1c(Br)cn(-c2ccccc2)c(-c2c(F)cccc2F)c1Br [Compound 363]
[1]; [6]
  Test C control value: H (H shows the control value of more than 50%)
[2]; 250 ppm spray (2.5 ml/pot)
  Test G control value: H (H shows the control value of more than 50%)
[3]; [7]
  Test D control value: L (L shows the control value of 50% or less)
[4]; [8]
  Test B control value: H (H shows the control value of more than 50%)
[5]; [9]
  Test E control value: H (H shows the control value of more than 50%)

## Cc1c(-n2cc(Br)c(=O)c(Cl)c2-c2c(F)cc(F)cc2F)cccc1C(F)(F)F [Compound 364]
[1]; [6]
  Test C control value: H (H shows the control value of more than 50%)
[2]; 250 ppm spray (2.5 ml/pot)
  Test G control value: H (H shows the control value of more than 50%)
[3]; [7]
  Test D control value: H (H shows the control value of more than 50%)
[4]; [8]
  Test B control value: H (H shows the control value of more than 50%)
[5]; [9]
  Test E control value: H (H shows the control value of more than 50%)

## Cc1c(-n2cc(Br)c(=O)c(Br)c2-c2c(F)cc(F)cc2F)cccc1C(F)(F)F [Compound 365]
[1]; [6]
  Test C control value: H (H shows the control value of more than 50%)
[2]; 250 ppm spray (2.5 ml/pot)
  Test G control value: L (L shows the control value of 50% or less)
[3]; [7]
  Test D control value: L (L shows the control value of 50% or less)
[4]; [8]
  Test B control value: H (H shows the control value of more than 50%)
[5]; [9]
  Test E control value: L (L shows the control value of 50% or less)

## COc1cccc(-n2cc(Br)c(=O)c(Cl)c2-c2c(F)cc(F)cc2F)c1C [Compound 366]
[1]; [6]
  Test C control value: H (H shows the control value of more than 50%)
[2]; 250 ppm spray (2.5 ml/pot)
  Test G control value: H (H shows the control value of more than 50%)
[3]; [7]
  Test D control value: H (H shows the control value of more than 50%)
[4]; [8]
  Test B control value: H (H shows the control value of more than 50%)
[5]; [9]
  Test E control value: H (H shows the control value of more than 50%)

## COc1cccc(-n2cc(Br)c(=O)c(Br)c2-c2c(F)cc(F)cc2F)c1C [Compound 367]
[1]; [6]
  Test C control value: H (H shows the control value of more than 50%)
[2]; 250 ppm spray (2.5 ml/pot)
  Test G control value: H (H shows the control value of more than 50%)
[3]; [7]
  Test D control value: H (H shows the control value of more than 50%)
[4]; [8]
  Test B control value: H (H shows the control value of more than 50%)
[5]; [9]
  Test E control value: H (H shows the control value of more than 50%)

## Cc1cccc(F)c1-n1cc(Cl)c(=O)c(Cl)c1-c1ccc(F)cc1 [Compound 369]
[1]; [6]
  Test C control value: L (L shows the control value of 50% or less)
[2]; 250 ppm spray (2.5 ml/pot)
  Test G control value: H (H shows the control value of more than 50%)
[3]; [7]
  Test D control value: L (L shows the control value of 50% or less)
[4]; [8]
  Test B control value: H (H shows the control value of more than 50%)
[5]; [9]
  Test E control value: H (H shows the control value of more than 50%)

## Cc1cn(-c2ccccc2C(F)(F)F)c(-c2c(F)cccc2F)c(C)c1=O [Compound 370]
[1]; [6]
  Test C control value: H (H shows the control value of more than 50%)
[2]; 250 ppm spray (2.5 ml/pot)
  Test G control value: L (L shows the control value of 50% or less)
[3]; [7]
  Test D control value: L (L shows the control value of 50% or less)
[4]; [8]
  Test B control value: L (L shows the control value of 50% or less)
[5]; [9]
  Test E control value: L (L shows the control value of 50% or less)

## O=c1c(Br)cn(-c2ccccc2C(F)(F)F)c(-c2c(F)cccc2F)c1Cl [Compound 371]
[1]; [6]
  Test C control value: H (H shows the control value of more than 50%)
[2]; 250 ppm spray (2.5 ml/pot)
  Test G control value: L (L shows the control value of 50% or less)
[3]; [7]
  Test D control value: H (H shows the control value of more than 50%)
[4]; [8]
  Test B control value: H (H shows the control value of more than 50%)
[5]; [9]
  Test E control value: H (H shows the control value of more than 50%)

## Cc1ccc(N(C)C)cc1-n1cc(Br)c(=O)c(Cl)c1-c1c(F)cc(F)cc1F [Compound 373]
[1]; spray treatment
  Test C control value: H (H shows the control value of more than 50%)
[2]; 250 ppm spray
  Test G control value: L (L shows the control value of 50% or less)
[3]; spray treatment
  Test D control value: L (L shows the control value of 50% or less)
[4]; spray treatment
  Test B control value: L (L shows the control value of 50% or less)
[5]; spray treatment
  Test E control value: L (L shows the control value of 50% or less)

## CNc1ccc(C)c(-n2cc(Br)c(=O)c(Cl)c2-c2c(F)cc(F)cc2F)c1 [Compound 374]
[1]; spray treatment
  Test C control value: H (H shows the control value of more than 50%)
[2]; 250 ppm spray
  Test G control value: L (L shows the control value of 50% or less)
[3]; spray treatment
  Test D control value: L (L shows the control value of 50% or less)
[4]; spray treatment
  Test B control value: H (H shows the control value of more than 50%)
[5]; spray treatment
  Test E control value: L (L shows the control value of 50% or less)

## CCc1c(-c2c(F)cc(F)cc2F)n(-c2ccccc2C)cc(Cl)c1=O [Compound 375]
[1]; spray treatment
  Test C control value: H (H shows the control value of more than 50%)
[2]; 250 ppm spray
  Test G control value: L (L shows the control value of 50% or less)
[3]; spray treatment
  Test D control value: H (H shows the control value of more than 50%)
[4]; spray treatment
  Test B control value: H (H shows the control value of more than 50%)
[5]; spray treatment
  Test E control value: H (H shows the control value of more than 50%)

## Cc1ccccc1-n1cc(Br)c(=O)c(Cl)c1-c1ccccc1F [Compound 377]
[1]; spray treatment
  Test C control value: H (H shows the control value of more than 50%)
[2]; 250 ppm spray
  Test G control value: L (L shows the control value of 50% or less)
[3]; spray treatment
  Test D control value: L (L shows the control value of 50% or less)
[4]; spray treatment
  Test B control value: H (H shows the control value of more than 50%)
[5]; spray treatment
  Test E control value: L (L shows the control value of 50% or less)

## Cc1ccccc1-n1cc(Br)c(=O)c(Cl)c1-c1ccccc1 [Compound 378]
[1]; spray treatment
  Test C control value: L (L shows the control value of 50% or less)
[2]; 250 ppm spray
  Test G control value: L (L shows the control value of 50% or less)
[3]; spray treatment
  Test D control value: L (L shows the control value of 50% or less)
[4]; spray treatment
  Test B control value: L (L shows the control value of 50% or less)
[5]; spray treatment
  Test E control value: L (L shows the control value of 50% or less)

## Cc1cccc(Cl)c1-n1cc(Br)c(=O)c(Cl)c1-c1ccc(F)cc1 [Compound 379]
[1]; spray treatment
  Test C control value: L (L shows the control value of 50% or less)
[2]; 250 ppm spray
  Test G control value: H (H shows the control value of more than 50%)
[3]; spray treatment
  Test D control value: L (L shows the control value of 50% or less)
[4]; spray treatment
  Test B control value: H (H shows the control value of more than 50%)
[5]; spray treatment
  Test E control value: H (H shows the control value of more than 50%)

## Cc1cccc(Cl)c1-n1cc(Br)c(=O)c(Br)c1-c1ccc(F)cc1 [Compound 380]
[1]; spray treatment
  Test C control value: L (L shows the control value of 50% or less)
[2]; 250 ppm spray
  Test G control value: L (L shows the control value of 50% or less)
[3]; spray treatment
  Test D control value: L (L shows the control value of 50% or less)
[4]; spray treatment
  Test B control value: H (H shows the control value of more than 50%)
[5]; spray treatment
  Test E control value: H (H shows the control value of more than 50%)
